The target of this test is T1, His-PIPKIγ661 (mouse by paragraph 21, human by paragraph 73, UniProt O70161 1-661).
T1 construct: Recombinant, purified from E. coli; I took these to be the same pET28 product; also called recombinant T7-tagged PIPKIγ; nonphosphorylated PIPKIγ661; not shown: His tag / T7 tag of the pET28 vector
Briefly: GST pulldown. Here is the method:
To further analyze the association of PIPKIγ661 with the μ2-subunit of AP2, a GST pulldown approach was used. Since the full-length μ2-subunit is primarily insoluble in Escherichia coli, a truncation mutant was generated. This was accomplished by deleting of the bulk of the N-terminal domain and replacing it with GST. The resulting soluble construct contained the complete linker domain and the C-terminal domain. The GST pulldown was then performed by incubating PIPKIγ661 with GST-μ2 in the presence of glutathione conjugated SEPHAROSE™ beads.
Immunoprecipitation was performed according to standard methods (Ling, et al. (2002) supra). Briefly, cells were harvested and lysed in lysis buffer (50 mM Tris-HCl, pH 7.5, 150 mM NaCl, 0.2% NP-40, 2 mM Na₃VO₄, 1 mM EDTA, 1 mM PMSF, and 10% glycerol). Cell lysates were incubated with 50 μL of 1:1 diluted Protein A-SEPHAROSE and 2-5 μg of the appropriate antibodies at 4° C. for 4 hours to overnight. The immunocomplexes were separated by 7.5% to 10% SDS-PAGE, and analyzed as indicated. GST-tagged PIPKIα, PIPKIγ635, PIPKIγ661, His-tagged E-cadherin tail or HR-E-cadherin tail were expressed and purified from E. coli, and GST pull-down assays were performed according to well-established methods (Ling, et al. (2003) supra). […] The beads were washed with 1 ml buffer B four times, resolved by SDS-PAGE and analyzed via western blot. […]

B1: GST alone (other)
chain: not shown
Consider B1, for which the binding result was “no binding”.
